Reference: PubChem BioAssay AID1460 (National Center for Advancing Translational Sciences (NCATS), 2008)
The campaign covered roughly 270,000 compounds. About 5,800 (2.1%) were called active. The inconclusive results got no clear call from the source; some entries with a clear call stand among them for comparison. The call rests on the fitted dose curve; in most records, active means well fitted inhibition curve with a large enough effect; inconclusive means small, poorly fitted or top-dose-only effect; inactive means flat fitted curve, though single readings scatter. Where the call is inconclusive, the potency comes from a doubtful curve fit.
Further: nearly all actives have a fitted effect of over 55% in size.
On the % scale 0 is the no-effect control and ±100 the full control effect; potency means the concentration at half of the fitted maximal effect; tags describe the fitted curve by direction and shape.

These compounds were tested against Microtubule-associated protein tau (Homo sapiens) (UniProt P10636) (assay: qHTS for Inhibitors of Tau Fibril Formation, Thioflavin T Binding). Details: recombinant tau K18 P301L, heparin-induced fibrillization, ThT fluorescence; series mostly up to 57.4 µM.
UniProt P10636, sequence (P10636 whole entry, looked up): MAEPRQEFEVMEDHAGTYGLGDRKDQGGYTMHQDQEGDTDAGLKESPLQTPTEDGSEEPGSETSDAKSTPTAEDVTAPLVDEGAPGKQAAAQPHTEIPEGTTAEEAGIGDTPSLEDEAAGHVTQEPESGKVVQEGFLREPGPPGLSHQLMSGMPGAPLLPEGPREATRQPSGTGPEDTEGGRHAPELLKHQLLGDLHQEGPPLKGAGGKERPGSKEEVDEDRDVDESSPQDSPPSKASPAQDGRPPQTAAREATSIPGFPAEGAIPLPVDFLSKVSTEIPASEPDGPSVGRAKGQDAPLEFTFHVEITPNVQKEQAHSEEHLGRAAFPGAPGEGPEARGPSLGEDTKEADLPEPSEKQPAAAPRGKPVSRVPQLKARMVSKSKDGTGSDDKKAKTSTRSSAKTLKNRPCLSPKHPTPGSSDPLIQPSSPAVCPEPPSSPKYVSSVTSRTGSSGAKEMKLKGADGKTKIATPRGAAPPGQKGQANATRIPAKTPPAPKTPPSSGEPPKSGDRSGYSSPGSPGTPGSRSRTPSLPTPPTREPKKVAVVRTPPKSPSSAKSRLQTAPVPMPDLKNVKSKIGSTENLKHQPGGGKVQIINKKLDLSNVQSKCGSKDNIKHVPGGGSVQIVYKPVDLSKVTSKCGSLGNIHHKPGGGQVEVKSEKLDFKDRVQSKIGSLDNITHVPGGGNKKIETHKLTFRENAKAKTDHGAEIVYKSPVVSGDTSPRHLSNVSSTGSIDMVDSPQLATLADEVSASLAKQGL
Method in brief: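 ThT emission at 510 nm, taken 1 hr after adding 30 uM dye, quantifies aggregates formed when 20 uM heparin acts on human tau K18 P301L for 6 hr at 37 C.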
With `CN(C)NC(=S)NC1CCS(=O)(=O)C1` (stereo not given) the Potency was “inactive”. For `COc1ccc(OC)c(N/C=C2/CCCCC2=O)c1`, the Potency was “inactive”. For `CS(=O)(=O)N(CC(=O)NCC1CCCO1)c1cccc(Cl)c1` (stereo not given), the Potency was active: 5.01 µM. In the case of `CC(C(=O)NCCCc1ccccc1)c1ccc([N+](=O)[O-])cc1` (stereo not given), the Potency is reported as “inactive”. In the case of `O=C(CCc1nc2ccccc2c(=O)[nH]1)OCC(=O)N1CCN(S(=O)(=O)c2ccccc2)CC1`, the Potency is reported as “inactive”. For `CC(=O)N1c2ccccc2C(=O)C1N1CCN(c2cc(Cl)ccc2C)CC1` (stereo not given), the Potency was “inactive”. For `Cc1nc2ccc(C(=O)Nc3cccc([N+](=O)[O-])c3)cc2s1`, the Potency was inconclusive: 4.47 µM [inhibitor, full curve]. `CNc1oc(-c2ccc(Cl)cc2)nc1P(=O)(c1ccccc1)c1ccccc1` was tested, and the Potency was inconclusive: 39.8 µM [inhibitor, single point]. In the case of `Cc1ccc(OCCCC(=O)Nc2sc3c(c2C(N)=O)CCCC3)cc1`, the Potency is reported as inconclusive: 10 µM [inhibitor, partial curve]. `Fc1ccccc1N1CCN(c2c3c(nc4nncn24)CCC3)CC1` was tested, and the Potency was inconclusive: 25.1 µM [inhibitor, single point]. For `CCCCS(=O)CC(O)CSc1nc(-c2ccc(OC)cc2)cc(-c2ccccc2)c1C#N` (stereo not given), the Potency was “inactive”. For `Cc1ccc(/C=C/c2onc(C)c2S(=O)(=O)N2CCC(C(=O)NCc3ccc(N(C)C)cc3)CC2)cc1`, the Potency was “inactive”. With `Cc1ccc(NC(=O)C(NC2CCCc3ccccc32)c2ccccc2)c([N+](=O)[O-])c1` (stereo not given) the Potency was inconclusive: 12.6 µM [inhibitor, single point]. `COc1cccc([C@@H]2Oc3ccc(OC)cc3/C(=N/OC[C@@H](O)COCc3ccco3)[C@@H]2O)c1` was tested, and the activity, negative = inhibition was inactive: -5.65% [at 11.5 µM]. In the case of `CCOC(=O)c1c(C)sc(Sc2ccc(Cl)cc2[N+](=O)[O-])c1OC`, the Potency is reported as inconclusive: 44.7 µM [inhibitor, partial curve, poor fit]. `CCOC(=O)c1sc(=S)sc1SCc1cccc(C(F)(F)F)c1` was tested, and the Potency was inconclusive: 4.47 µM [inhibitor, full curve]. With `Cc1nn(-c2ccccc2)c(N2CCCC2)c1/C=N/NC(=O)c1cc(-c2ccccn2)nc2ccccc12` the Potency was inconclusive: 10 µM [inhibitor, partial curve]. `CCN(CC)CC(=O)Nc1c(C)cc(C(C)(C)C)cc1C` was tested, and the Potency was “inactive”. With `CCOC(=O)C1=C(N)Oc2cc(O)ccc2C1c1ccc([N+](=O)[O-])cc1` (stereo not given) the Potency was inconclusive: 3.98 µM [inhibitor, single point]. With `Cc1cccc(N/N=C(\C(N)=O)C2=NC(C)(C)Cc3ccccc32)c1` the Potency was inconclusive: 22.4 µM [inhibitor, partial curve, poor fit]. `CSc1nncc(/C(C)=N\Nc2ccccc2C)n1` was tested, and the Potency was active: 0.891 µM. For `COc1ccc(C(=O)N/N=C/c2ccc(OC)c(CN3CCc4cc(OC)c(OC)cc4C3C)c2)cc1` (stereo not given), the Potency was inconclusive: 7.94 µM [inhibitor, partial curve]. With `C=CCn1c(SCCC)nc2sc3c(c2c1=O)CCc1ccccc1-3` the Potency was inconclusive: 20 µM [inhibitor, partial curve]. With `Cn1c(O)c(N=NC(=N)N)c2ccccc21` the Potency was “inactive”. For `O=C(CSc1nnc(-c2ccccc2F)o1)N1CCc2ccccc21`, the Potency was inconclusive: 25.1 µM [inhibitor, single point]. With `COc1cc(C(=O)Nc2c(C)cc(C)cc2C)c([N+](=O)[O-])cc1OC` the Potency was “inactive”. In the case of `CN(C)c1ccc(N=C/C=C2/N(C)c3ccccc3C2(C)C)cc1`, the Potency is reported as active: 3.16 µM. For `O=C1OCC/C1=C\c1ccc2c(c1)OCO2`, the Potency was “inactive”. For `O=C(CCN1CCN(c2ccccc2)CC1)N/N=C/c1ccc([N+](=O)[O-])o1`, the Potency was inconclusive: 14.1 µM [inhibitor, partial curve]. For `O=C(CSc1nnc(-c2ccccn2)n1Cc1ccco1)c1ccccc1`, the Potency was “inactive”. `O=C(NCCc1ccccc1)c1ccc(CSc2nc3ccncc3n2Cc2ccccc2)cc1` was tested, and the Potency was “inactive”. With `COC(=O)c1c(C)c2c(C)cc3ccccn3c-2c1C(=O)OC` the Potency was active: 12.6 µM. `O=C(CN1CCN(c2ccc(O)cc2)CC1)NC(c1ccccc1)c1ccccc1` was tested, and the Potency was inconclusive: 17.8 µM [inhibitor, partial curve]. With `CCCc1nc(SCC(=O)Nc2ccc(N3CCOCC3)cc2)c2ccccc2n1` the Potency was inconclusive: 28.2 µM [inhibitor, partial curve]. For `O=C(O)c1ccccc1C(=O)c1ccc(N2CCCC2)c([N+](=O)[O-])c1`, the Potency was “inactive”. `CCC(=O)c1ccccc1OCCCN1C(=O)NC(C)(C)C1=O` was tested, and the Potency was “inactive”. With `Cn1c(=O)c2[nH]c(N3CCN(c4cccc(O)c4)CC3)nc2n(C)c1=O` the Potency was inconclusive: 31.6 µM [inhibitor, partial curve]. In the case of `CN(Cc1cn(-c2ccccc2)nc1-c1cc2ccccc2o1)C(=O)CCC(=O)O`, the Potency is reported as “inactive”. For `CCOC(=O)CC1C(=O)NCCN1c1nc2ccc(C)cn2c(=O)c1/C=C1\SC(=S)N(CC(C)C)C1=O` (stereo not given), the Potency was inconclusive: 3.98 µM [inhibitor, full curve]. In the case of `CCSc1nc2sc3c(c2c(=O)[nH]1)CCc1ccccc1-3`, the Potency is reported as inconclusive: 1.41 µM [inhibitor, full curve]. `O=C(CCNc1ccc(Cc2ccncc2)cc1)c1ccc([N+](=O)[O-])cc1` was tested, and the Potency was active: 10 µM. For `COc1cc(OC)cc(C(=O)Nc2ccc(S(=O)(=O)Nc3onc(C)c3C)cc2)c1`, the Potency was inconclusive: 20 µM [inhibitor, single point]. With `COc1ccccc1N1CCN(CC(=O)Nc2ccc(Cl)c(C(F)(F)F)c2)CC1` the Potency was inconclusive: 31.6 µM [inhibitor, single point]. `Cc1cc2n(n1)C(c1ccc(N(C)C)cc1)Nc1ccccc1-2` (stereo not given) was tested, and the Potency was inconclusive: 11.2 µM [inhibitor, partial curve]. With `CCN1CCN(c2cc(C)c3cc(NC(=S)N4CCC5(CC4)OCCO5)ccc3n2)CC1` the Potency was inconclusive: 20 µM [inhibitor, partial curve]. With `O=C(O)c1ccc(N2C(=O)CC(N3C(=O)/C(=C/c4ccc(Cl)cc4)SC3=S)C2=O)cc1` (stereo not given) the Potency was inconclusive: 15.8 µM [inhibitor, partial curve]. For `O=C(N/N=C1/C(=O)c2cccc3cccc1c23)c1ccc(Cl)cc1`, the Potency was active: 4.47 µM. In the case of `CC(C)(C)c1ccc2c(c1)OC(C(=O)N/N=C\c1ccccn1)CO2` (stereo not given), the Potency is reported as inconclusive: 39.8 µM [inhibitor, single point]. With `CCOCCCNC(=O)/C(C#N)=C/c1ccc(C(=O)OC)cc1` the Potency was inconclusive: 31.6 µM [inhibitor, single point]. For `COc1cc(NS(=O)(=O)c2ccc(NC(=O)COc3ccc(C)cc3C)cc2)nc(OC)n1`, the Potency was inconclusive: 25.1 µM [inhibitor, partial curve, poor fit]. `CCCn1c(=N)n(CC(O)c2ccco2)c2ccccc21` (stereo not given) was tested, and the Potency was “inactive”. In the case of `O=C(O)c1ccnc(SCC(=O)c2ccccc2)c1`, the Potency is reported as “inactive”. With `CCOC(=O)CSc1c(-c2ccccc2)c2cc(Cl)ccc2[nH]c1=O` the Potency was “inactive”. In the case of `COc1ccc2c(C(=O)CCl)c[nH]c2c1`, the Potency is reported as inconclusive: 12.6 µM [inhibitor, partial curve]. In the case of `CCN(CC)S(=O)(=O)c1cccc(C(=O)N/N=C/c2cc(OC)c(O)c(OC)c2)c1`, the Potency is reported as inconclusive: 28.2 µM [inhibitor, single point]. `Cn1c(CNc2nc(-c3ccccc3)cs2)nnc1SCC(=O)c1ccccc1` was tested, and the Potency was inconclusive: 22.4 µM [inhibitor, partial curve]. For `CCOC(=O)c1ccc2ncc(C(=O)OCC)c(Nc3ccc(C)c(Br)c3)c2c1`, the Potency was inconclusive: 10 µM [inhibitor, partial curve]. In the case of `CCC(=O)N1CCN(c2ccc(NC(=O)c3ccccc3)cc2)CC1`, the Potency is reported as inconclusive: 3.98 µM [inhibitor, partial curve]. `CCOc1cc(/C=N/NC(=O)CSc2cccc3cccnc23)ccc1O` was tested, and the Potency was inconclusive: 12.6 µM [inhibitor, partial curve]. With `COc1ccc(C(=O)c2cn(CC(=O)Nc3ccc4c(c3)OCO4)c3ccc(OC)cc3c2=O)cc1` the Potency was inconclusive: 35.5 µM [inhibitor, single point]. With `Cc1occc1C(=O)N1CCN(c2ccc(Cl)c(Cl)c2)CC1` the Potency was inconclusive: 31.6 µM [inhibitor, partial curve]. With `O=C(O)c1cccc(Cn2c(Cl)c(/C=N/NC(=O)c3cc4ccccc4cc3O)sc2=O)c1` the Potency was active: 20 µM. For `COc1nc(/C(N)=N/O)nc(N2CCCCC2)n1`, the Potency was “inactive”. `CCN(CC)c1ccc(NC(=O)c2ccc(=O)[nH]c2)cc1S(=O)(=O)Nc1ccccc1OC` was tested, and the Potency was inconclusive: 39.8 µM [inhibitor, single point]. For `Clc1cccc(N=C2NN=C(c3ccc4c(c3)OCCO4)CS2)c1`, the Potency was active: 15.8 µM. In the case of `O=C(N/N=C/c1ccc(O)cc1)Nc1cccc2nsnc12`, the Potency is reported as inconclusive: 5.62 µM [inhibitor, partial curve]. `N=c1n(CC(=O)c2ccc([N+](=O)[O-])cc2)c2ccccc2n1Cc1ccc(Cl)cc1` was tested, and the Potency was inconclusive: 5.01 µM [inhibitor, partial curve]. `C=CC[n+]1c(-c2ccc(OC)c(OC)c2)csc1NNC(=O)Nc1ccccc1` was tested, and the Potency was inconclusive: 14.1 µM [inhibitor, partial curve]. With `Oc1ccc(/C=N/Nc2cc(N3CCOCC3)nc(N3CCOCC3)n2)cc1O` the Potency was inconclusive: 10 µM [inhibitor, partial curve]. `COc1ccc(N2CCN(c3oc(-c4ccccc4OC)nc3C#N)CC2)cc1` was tested, and the Potency was inconclusive: 5.01 µM [inhibitor, partial curve].
